Reference: article PMC4336329 (PLoS ONE, 2015)
Out of some 310,000 compounds screened, about 2,200 (0.71%) showed an effect of 50% or more. Effects have a minus sign here. The list shows a part of the results.

Molecular target: human ether-à-go-go-related gene (hERG) potassium channel (human, UniProt Q12809)
Test: primary screen, population patch clamp on CHO cells stably expressing hERG

Chain of human ether-à-go-go-related gene (hERG) potassium channel (Q12809 whole entry, looked up): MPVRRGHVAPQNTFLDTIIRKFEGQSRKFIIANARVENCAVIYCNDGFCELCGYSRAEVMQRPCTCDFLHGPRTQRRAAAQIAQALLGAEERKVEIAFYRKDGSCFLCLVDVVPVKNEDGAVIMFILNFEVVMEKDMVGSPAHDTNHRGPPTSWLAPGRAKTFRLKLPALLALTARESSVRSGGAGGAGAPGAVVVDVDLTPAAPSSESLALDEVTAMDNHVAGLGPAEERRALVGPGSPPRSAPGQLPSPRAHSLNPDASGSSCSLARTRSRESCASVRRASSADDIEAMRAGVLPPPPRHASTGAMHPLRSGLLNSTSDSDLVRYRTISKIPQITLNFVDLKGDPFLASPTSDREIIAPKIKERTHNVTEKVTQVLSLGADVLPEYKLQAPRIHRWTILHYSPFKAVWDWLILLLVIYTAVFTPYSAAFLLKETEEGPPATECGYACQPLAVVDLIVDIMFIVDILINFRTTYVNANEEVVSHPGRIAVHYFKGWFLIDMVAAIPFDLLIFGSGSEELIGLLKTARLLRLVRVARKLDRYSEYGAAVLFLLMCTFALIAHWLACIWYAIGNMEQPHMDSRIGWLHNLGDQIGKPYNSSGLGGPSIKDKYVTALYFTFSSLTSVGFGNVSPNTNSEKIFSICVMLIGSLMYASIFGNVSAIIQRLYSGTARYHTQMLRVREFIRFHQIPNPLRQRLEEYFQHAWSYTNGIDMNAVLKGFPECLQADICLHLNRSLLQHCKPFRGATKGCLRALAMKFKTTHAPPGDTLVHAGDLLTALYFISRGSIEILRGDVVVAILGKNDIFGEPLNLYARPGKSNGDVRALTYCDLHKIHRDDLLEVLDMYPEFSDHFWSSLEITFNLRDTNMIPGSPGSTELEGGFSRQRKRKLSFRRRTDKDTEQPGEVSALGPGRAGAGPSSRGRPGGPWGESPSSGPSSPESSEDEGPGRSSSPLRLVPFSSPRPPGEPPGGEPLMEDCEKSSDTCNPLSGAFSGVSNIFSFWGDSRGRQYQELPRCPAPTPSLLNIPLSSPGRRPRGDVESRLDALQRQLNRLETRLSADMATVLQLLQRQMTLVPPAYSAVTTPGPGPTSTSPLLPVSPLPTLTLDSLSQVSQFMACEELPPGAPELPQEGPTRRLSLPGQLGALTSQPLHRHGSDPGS

Structure (SMILES) | hERG current change (%, negative = inhibition) at 1uM [%]
C/C(=C\C(=O)c1ccccc1)Nc1cccc(O)c1 | 12.4
Cc1cccn2c(=O)c(/C=C(\C#N)S(=O)(=O)c3ccccc3)c(Oc3ccc(Cl)cc3)nc12 | 10.6
COC(=O)c1ccccc1NS(=O)(=O)c1ccc(Cl)nc1 | 2.55
Cc1cc(=O)oc2c(CN3CCN(CCO)CC3)c(O)ccc12 | 9.44
COc1ccc(NS(=O)(=O)c2cccc(-c3nnc(-c4ccccc4)o3)c2)cc1 | 4.81
Nc1ccc(S(=O)(=O)Nc2ncccn2)cc1 | 17.8
CCc1nc2ccc(C(=O)NCCCN3CCN(c4ccccc4F)CC3)cc2nc1CC | 2.05
Cc1[nH]c2ccccc2c1SCC(=O)N1CCOCC1 | 8.34
COCCNC(=S)N1CCN(c2ccc(Cl)cc2)CC1 | 1.27
O=C(COC(=O)[C@@H]1CC(O)CN1S(=O)(=O)c1ccc(Cl)cc1)NC(=O)NCc1ccccc1 (some centres unmarked) | 1.37
COc1cccc(C2CC(c3ccc(Cl)cc3)Nc3nc(N)nn32)c1 (centres unmarked) | -15.8
COC(=O)c1ccc(C2/C(=C(\O)c3cccc(OC)c3)C(=O)C(=O)N2CCCN(C)C)cc1 (centres unmarked) | 10.2
Br.COc1ccc(N=c2scc(-c3ccc(OC)cc3)n2CCO)cc1 | 6.5
COC(=O)c1ccc(N2CCN(C(=O)C3CC3)CC2)c([N+](=O)[O-])c1 | 5.01
Cc1cccc(NC(=O)c2c([N+](=O)[O-])cnn2C)c1 | 18.1
NCCCC[C@H]1CNC(=O)C(=O)N1CCc1cccc2ccccc12 | 7.74
Cc1cc(NC(=O)c2cc(CC(C)C)on2)n(-c2ccccc2)n1 | 12.4
COc1ccc(-c2csc(NC(=S)NC(=O)c3ccc(S(=O)(=O)N(C)C)cc3)n2)cc1OC | 12.5
Cc1nnc(NC(=O)CCC(=O)NCc2ccco2)s1 | 5.6
Cc1ccccc1C(=O)Nc1cccc(C(=O)N/N=C/c2cc(Cl)cc([N+](=O)[O-])c2O)c1 | 7.95
Cc1ccccc1N1CC(C(=O)Nc2ccc(S(=O)(=O)N3CCCC3)cc2)CC1=O (centres unmarked) | 0.727
O=c1oc2ccccc2cc1-c1nc(-c2cccs2)cs1 | 9.41

Structure (SMILES) | hERG current change (%, negative = inhibition) at 1uM [%]
CN(C1CCCCC1)S(=O)(=O)c1ccc2c(c1)c(=O)c(C(=O)NCCCN1CCCC1)cn2C | -1.99
CC(NC(=O)Nc1ccc(Cl)cc1)C(c1cccs1)N1CCOCC1 (centres unmarked) | 7.38
Ic1ccccc1CN[C@@H]1C2CCN(CC2)[C@@H]1C(c1ccccc1)c1ccccc1.O.O=C(O)C(=O)O | -18.4
CN(C)S(=O)(=O)c1cccc(NC(=O)c2cccc(S(=O)(=O)N3CCc4ccccc43)c2)c1 | 9.75
COc1ccc(C(c2nnnn2C2CCCC2)N2CCN(C(=O)c3ccco3)CC2)cc1OC.Cl (centres unmarked) | -0.0835
CC(C)(O)[C@@H]1Cc2c(ccc3ccc(=O)oc23)O1 | 11.6
COc1ccc(N=Nc2cc(C)c(O)c(CN3CCCCC3)c2)cc1 | 7.96
CCC(=O)Nc1ncc2c(n1)CC(c1ccco1)CC2=O (centres unmarked) | 12
CC(=O)Nc1ccc(OCC(=O)N(CC(C)C)C2CCS(=O)(=O)C2)cc1 (centres unmarked) | 14.2
COc1ccccc1CNC(=O)COC(=O)c1cccc(-n2cnnn2)c1 | 5.94
COC(=O)c1ccc(/C=N/NC(=S)NCCN2CCOCC2)cc1 | 8.48
Cc1ccc(N2C(=S)N=C(Nc3ccccc3C)C23CCOC(C)(C)C3)cc1 (centres unmarked) | -1.2
CC12CN3CC(C)(CN(C1)C3c1ccc(Br)cc1)C2=O (centres unmarked) | 4.26
CCCCn1c(N)c(N(CCOC)C(=O)COc2ccc(C(C)=O)cc2)c(=O)[nH]c1=O | 13.2
CC1O[C@@H](OCC2O[C@@H](Oc3cc(O)c4c(c3)OC(c3ccc(O)cc3)CC4=O)[C@H](O)[C@@H](O)[C@@H]2O)[C@H](O)[C@H](O)[C@H]1O (some centres unmarked) | 14
O=C1CC(c2ccccc2)CC(O)=C1C=NCCN1CCN(Cc2ccccc2)CC1 (centres unmarked) | -23.9
Fc1ccc(-c2nc3c(Cl)cc(C(F)(F)F)cn3c2Cl)cc1 | 9.37
CCOC(=O)c1cc2c(ccn2C)n1Cc1cc(C)ccc1C | 17.6
CCC(C(=O)Nc1ccccn1)c1ccccc1 (centres unmarked) | 9.19
CSc1ccc(C(=O)C2CCCN(C(=O)c3nonc3C)C2)cc1 (centres unmarked) | 7.67
CCOc1ccc(N(CC(=O)Nc2cc(OC)cc(OC)c2)S(=O)(=O)c2c(C)[nH]c(=O)[nH]c2=O)cc1 | 11.7
CC(=O)n1cc(CO)c2ccccc21 | 11.6

Structure (SMILES) | hERG current change (%, negative = inhibition) at 1uM [%]
O=C(NCc1cccnc1)c1nc(-c2ccc(C(F)(F)F)cc2)no1 | -16.6
CSc1cccc(NC(=S)N2CCCN(Cc3cccc(Cl)c3)C2)c1 | 22.7
O=C1C=C(c2ccc3cc[nH]c3c2)C[C@@H](c2ccc3c(c2)OCO3)C1 | 9.5
COc1ccc(-c2cc3ccc(O)cc3oc2=O)cc1 | 2.61
O=C1C2CCCN2C(=O)N1CCCCN1CCN(CCO)CC1 (centres unmarked) | -12.1
Cc1[nH]c2ccc(C(=O)NCCCN3CCCCC3)cc2c1C | 3.44
CCOC(=O)CSc1nnc(CNC(=O)Cc2ccccc2)n1-c1ccccc1OC | 5.54
CC(/C=N/NC(=O)c1ccc(CN2c3cccc4cccc(c34)S2(=O)=O)cc1)c1ccccc1 (centres unmarked) | 9.2
CC(=O)Nc1ccc2c(c1)OCCO2 | -0.0997
CCNC(=O)CN(c1ccc(F)cc1)S(=O)(=O)c1ccc2c(c1)OCCO2 | 6.36
CC(=O)C1=C(C)Nc2ncnn2C1c1ccccc1 (centres unmarked) | 13.4
Cc1ccsc1/C=N/n1c(-c2cccnc2)n[nH]c1=S | 20
CCC(CCC(=O)NNC(=O)Cc1ccc([N+](=O)[O-])cc1)C(=O)O (centres unmarked) | 9.58
CCOC(=O)c1c(-c2ccccc2)oc2ccc(O)c(CN3CCCC3)c12 | -6.32
CCN1CCN(c2ccc(S(=O)(=O)N3CCCCC3)cc2NC(=O)c2cccc(Cl)c2)CC1 | 5.69
CC1(C)CC(NCc2cccc([N+](=O)[O-])c2)CC(C)(C)N1.Cl | 16.9
Cc1cnc([N+](=O)[O-])n1CCOC(=O)NC(=O)c1cccc(F)c1 | 5.52
O=C(c1cc([N+](=O)[O-])ccc1N1CCOCC1)N1CCOCC1 | 12.4
CCOC(=O)c1ccc(CNC(=O)Cn2nnc(-c3ccc(C)cc3)n2)o1 | 3.5
CC(C)OC(=O)C1C2C=CC3(CN(Cc4cccs4)C(=O)C13)O2 (centres unmarked) | 15.8
CCOC(=O)C1C(=O)NC(N2CCCCC2)=NC1C(C)C (centres unmarked) | 2.34
COc1ccccc1/C=C/C(=O)NCc1cccnc1 | 8.76

Structure (SMILES) | hERG current change (%, negative = inhibition) at 1uM [%]
O=S1(=O)[C@H]2C[C@@H]3C=C[C@@]2(CN1Cc1ccc(Cl)cc1)O3 | -0.0312
COc1cc(/C=N/NC(=O)CSc2ccccn2)ccc1O | 6.45
Cn1c(SCc2ccccc2)nnc1-c1ccc2c(c1)OCO2 | -1.22
Cc1cc(CN(C)C(=O)CC2C(=O)NCCN2Cc2ccc(-c3ccccc3)cc2)on1 (centres unmarked) | 16
C=CCOc1ccc(NC(=O)C2CC(=O)N(C(C)C)C2)cc1 (centres unmarked) | 15.2
Cc1cc(C(=O)OCC(=O)NC2CC2)ccc1[N+](=O)[O-] | -3.4
Cn1c(=O)n(Cc2ccccc2)c(=O)c2c1nc1n2CCN1Cc1ccco1 | 6.89
CN(C)c1nc(N(C)C)nc(N(C#N)CN2C(=O)c3ccccc3C2=O)n1 | 1.6
COc1cc(OC)c(NC(=O)CCNS(=O)(=O)c2ccc3c(c2)oc(=O)n3C)cc1Cl | 11.5
COC(=O)C1CCN(S(=O)(=O)c2c(C)n(C)c(=O)n(C)c2=O)CC1 | 3.6
COc1ccc(N2CCN(S(=O)(=O)CCNS(=O)(=O)c3ccccc3)CC2)cc1 | 8.06
COc1ccc(-c2ccnc(SCC(=O)c3ccc(OC)c(OC)c3)n2)cc1 | 9.11
O=C(NCCc1ccccc1)C1CCN(S(=O)(=O)N2CCCCCC2)CC1 | 3.39
N#CCC(=O)Nc1ccc(C(=O)OCC(=O)c2ccc3c(c2)OCO3)cc1 | 9.98
O=c1cc(C(F)(F)F)nc(-c2ccccc2)[nH]1 | 11
CCc1cccc(N=c2c([N+](=O)[O-])nn(-c3ccc4c(c3)OCCO4)n2O)c1 | 7.25
CN(C(=O)c1cc2c(s1)-c1ccccc1S(=O)(=O)C2)c1ccccc1F | 8.83
COc1ccc(-n2ncc3c2CC(C)(C)CC3NC(=O)CCN2CCCCC2=O)cc1 (centres unmarked) | 9.2
COc1ccc(N2C(=O)CC(N3CCCCC3)C2=O)cc1 (centres unmarked) | 11.9
CCOC(=O)n1c(=O)n(Cc2ccc(Cl)cc2Cl)c2ccccc21 | 7.77
